Test results published in PubChem BioAssay AID686979 (National Center for Advancing Translational Sciences (NCATS), 2013).
In all, about 420,000 compounds went through this assay and about 50,000 (12%) were called active. Inconclusive results, whose numbers are uncertain, are shown with a selection of clear calls. Calls come from the whole dose curve; as a rule, active = well fitted inhibition curve with a large enough effect; inconclusive = small, poorly fitted or top-dose-only effect; inactive = flat fitted curve, though single readings scatter. Potencies of inconclusive entries are left out as doubtful fits.

Assay: qHTS for Inhibitors of human tyrosyl-DNA phosphodiesterase 1 (TDP1): qHTS in cells in presence of CPT; note: nearly all actives have a fitted effect of over 55% in size
Settings: chicken DT40 Tdp1-/-;hTDP1 cells + 20 nM CPT, ATP luminescence, 48 h; activity change, negative = growth inhibition: at 46.2 µM (top of the series)
Procedure, shortened: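 Cell growth measured by CellTiter-Glo luminescence after a minimum 48 h, 37 C compound exposure with 20 nM CPT in Tdp1-knockout DT40 cells stably expressing hTDP1, seeded 400/well; qHTS titration format.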
% is set by controls: 0 for no effect and ±100 for the full control effect; potency is the fitted concentration of half-maximal effect; tags give direction and shape of the fitted curve.

Row | Structure (SMILES) | Potency | activity change, negative = growth inhibition
1 | Cc1ccc(CNC(=O)C23CN(Cc4ccccc4)CC2C(c2cccc([N+](=O)[O-])c2)=NO3)cc1 (stereo not drawn) | inconclusive [inhibitor, single point] | 
2 | O=[N+]([O-])c1ccc(COc2ccc(-c3[nH]ncc3-c3ccccc3)c(O)c2)cc1 | inconclusive [inhibitor, single point] | 
3 | CC(=O)Nc1ccc(C(=O)OCCC(C)C)cc1 | inactive | 
4 | CCCCOCCCNC(=O)Cc1ccccc1OC | inconclusive [inhibitor, single point] | 
5 | Cc1cccc(-n2ncc3c2CCCC3NC(=O)CCc2cccnc2)c1C (stereo not drawn) | inconclusive [inhibitor, partial curve] | 
6 | CC(=O)N1c2ccc(S(=O)(=O)N3CCC(C(=O)NCc4ccc(Cl)cc4)CC3)cc2CC1C (stereo not drawn) | active: 18.4 µM | 
7 | O=S(=O)(Nc1ccc(N2CCOCC2)cc1)c1ccc(Cl)s1 | inconclusive [inhibitor, single point] | 
8 | O=C(Nc1ccccc1)c1nc[nH]c1C(=O)N1CCN(c2ccccc2)CC1 | inconclusive [inhibitor, single point] | 
9 | Cn1cccc1C(=O)NC(=O)COC(=O)c1cc(S(=O)(=O)N2CCCCC2)ccc1Cl | inconclusive [inhibitor, single point] | 
10 | COc1ccccc1CNS(=O)(=O)c1c(C)nc2sccn2c1=O | inactive | 
11 | CCOC(=O)C1=C(C)C2C3C(=O)N(c4cc(C)ccc4C)C(=O)C3C1(C)C1C(=O)N(c3cc(C)ccc3C)C(=O)C21 (stereo not drawn) | inconclusive [inhibitor, single point] | 
12 | COc1ccc(CN(C)CC(=O)Nc2sc3c(c2C#N)CCC3)c(OC)c1 | inconclusive [inhibitor, single point] | 
13 | CCOC(=O)CSc1nc(N)c(C#N)c(CC(C)C)c1C#N | inactive | 
14 | COc1ccc(CCN=C(N)NS(=O)(=O)c2ccc(F)cc2)cc1 | inconclusive [inhibitor, partial curve] | 
15 | CN(CCC#N)c1ccc(/C=C(\C#N)c2ccccn2)cc1 | inconclusive [inhibitor, single point] | 
16 | CCc1ccc(-c2cc(C(F)(F)F)n3nc(C(=O)Nc4c(C)nn(Cc5ccccc5C)c4C)cc3n2)s1 | active: 18.4 µM | 
17 | O=C(Nc1ccc(Cl)c(Cl)c1)Nc1ccc(Br)cc1F | active: 5.8 µM | 
18 | O=C(CSc1cccc[n+]1[O-])C12CC3CC(CC(C3)C1)C2 | inconclusive [inhibitor, single point] | 
19 | CCOc1ccc(N(C)S(=O)(=O)c2ccc3[nH]cc(C(=O)NCCCOC)c(=O)c3c2)cc1 | active: 23.1 µM | 
20 | COc1ccc(C(=O)NC(=S)NNC(=O)CNC(=O)C2CCCCC2)cc1 | inactive | 
21 | CNc1ccnc(-c2ccccc2OC)n1 | inactive | 
22 | Cc1ccc(/C=C/C(=O)Nc2ccc(S(=O)(=O)Nc3onc(C)c3C)cc2)cc1 | inactive | 
23 | COc1ccc(C(=O)Nc2cccc(C)n2)cc1S(=O)(=O)N1CCCc2ccccc21 | inconclusive [inhibitor, single point] | 

Row | Structure (SMILES) | Potency | activity change, negative = growth inhibition
24 | O=C(CCN1C(=O)/C(=C/c2ccc(F)cc2)SC1=S)NC1CCS(=O)(=O)C1 (stereo not drawn) | inactive | 
25 | CN(Cc1ccccc1F)C(=O)c1ccc(NC(=O)CC2SC(N3CCCCC3)=NC2=O)cc1 (stereo not drawn) | inconclusive [inhibitor, partial curve, poor fit] | 
26 | CCN(C[C@H]1N[C@@](CC)(C(=O)OC)[C@H]2C(=O)N(Cc3ccccc3)C(=O)[C@@H]12)C(=O)c1ccc(C)cc1 | inconclusive [inhibitor, single point] | 
27 | Fc1ccc2c(c1)/C(=N/Nc1ccccn1)CCS2 | inactive | 
28 | COc1cccc(CNC(=O)CCc2c(C)c3cc4c(C)c(C)oc4cc3oc2=O)c1 | inconclusive [inhibitor, single point] | 
29 | O=C(CSc1nc2ccccc2c(=O)n1CCC(=O)N1CCCCC1)NCc1ccccc1 | inconclusive [inhibitor, single point] | 
30 | CC(=O)Nc1ccc(S(=O)(=O)Nc2cccc(S(=O)(=O)N(C)c3ccccc3)c2)cc1 | inconclusive [inhibitor, single point] | 
31 | CCOC(=O)c1ccccc1NS(=O)(=O)c1c(-c2ccc(C)cc2)csc1C(=O)OC | active: 6.51 µM | 
32 | Cc1nnc(N2CCCC(C(=O)NCc3ccccc3F)C2)c2nn(-c3ccccc3)c(C)c12 (stereo not drawn) | inconclusive [inhibitor, single point] | 
33 | CN(C(=O)Nc1ccc(F)cc1)[C@H]1C[C@H]2c3[nH]c4ccccc4c3CCN2C(=O)[C@H]1CO | inactive | 
34 | CC(=O)Nc1c(NC(C)C)c2ccccc2oc1=O | inconclusive [inhibitor, partial curve] | 
35 | COc1ccc(OC)c(C(c2nnnn2C2CCCC2)N2CCN(c3ccccc3F)CC2)c1 (stereo not drawn) | inconclusive [inhibitor, single point] | 
36 | Cc1cnn(C(=O)c2cc(-c3ccccc3)nc3ccccc23)c1 | inactive | 
37 | O=C(CSc1nc2ccccc2o1)Nc1nc2c(s1)CCCC2 | inconclusive [inhibitor, single point] | 
38 | COc1cc(CNC(=O)c2nc(Cn3nc(C)c(Br)c3C)no2)cc(OC)c1 | active: 29.1 µM | 
39 | CCN(CC)S(=O)(=O)c1ccc(N2CCCCC2)c(NC(=O)C2CCN(C(=O)c3ccc(F)cc3)CC2)c1 | inconclusive [inhibitor, single point] | 
40 | Cc1ccc(S(=O)(=O)N2CCN(C(=O)COC(=O)Cc3ccc(Cl)cc3)CC2)c(C)c1 | inconclusive [inhibitor, single point] | 
41 | O=C(NCCc1c[nH]c2ccccc12)C(=O)NCC1OCCN1S(=O)(=O)c1ccc(F)cc1 (stereo not drawn) | inconclusive [inhibitor, single point] | 
42 | COc1ccccc1CCC(=O)Nc1ccc(OC)c(S(=O)(=O)N2CCCCC2)c1 | inconclusive [inhibitor, single point] | 
43 | Cc1ccc(C2(C)NC(=O)N(CC(=O)N(C)CC(=O)Nc3cccc4ccccc34)C2=O)cc1 (stereo not drawn) | inactive | 
44 | CC(C)Oc1ccc(CNC(=O)c2ccc(NC(=O)c3nsc4ccccc34)cc2)cc1 | active: 20.6 µM | 
45 | COc1ccc(C(C(=O)NC(C)(C)C)n2c(-c3ccc(-c4ccccc4)cc3)nc3ccccc32)cc1 (stereo not drawn) | inconclusive [inhibitor, single point] | 
46 | COc1cc(OC)c(C(=O)O/N=C(\N)c2ccc(C)cc2)cc1OC | inconclusive [inhibitor, single point] | 

Row | Structure (SMILES) | Potency | activity change, negative = growth inhibition
47 | S=C(NCc1ccncc1)Nc1ccccc1 | inactive | 
48 | COc1ccc(/C=C(/C#N)c2nc(-c3ccc(-c4ccccc4)cc3)cs2)cc1 | inconclusive [inhibitor, single point] | 
49 | CCOC(=O)c1c(NC(=O)/C=C/C(=O)O)sc(C)c1-c1ccc(F)cc1 | inconclusive [inhibitor, single point] | 
50 | CCN(CCn1cccn1)C(=O)c1ccc2nc(Cc3ccc(OC)cc3)oc2c1 | inconclusive [inhibitor, partial curve] | 
51 | Cc1cc(NC(=O)Nc2ccc(F)cc2F)n(C)n1 | inactive | 
52 | Cn1cc(CCC(=O)NCCCc2ccccc2)c2ccccc21 | inactive | 
53 | COc1cc2c(c(Br)c1N)-c1cc(Br)c(N)cc1C2=O | inactive | 
54 | c1cncc(-c2cncnc2NC2CCNCC2)c1 | active: 16.4 µM | 
55 | CCNc1ncc2nc(-c3ccc(OC)cc3)c(=O)n(-c3ccc(OC)cc3)c2n1 | inconclusive [inhibitor, full curve, poor fit] | 
56 | COc1ccc(COC(=O)C2=C(C)NC(=O)NC2c2ccc(F)cc2)cc1 (stereo not drawn) | inconclusive [inhibitor, single point] | 
57 | CCOC(=O)CC(NCc1ccc(OC)c(OCC)c1)c1ccc(C)cc1 (stereo not drawn) | inconclusive [inhibitor, single point] | 
58 | CCCCn1c(N)c(N(CC(C)C)C(=O)CN(C)S(=O)(=O)c2ccc(NC(C)=O)cc2)c(=O)[nH]c1=O | inactive | 
59 | Cc1cccn2c(=O)c3cc(C(=O)N4CCCCC4C)sc3nc12 (stereo not drawn) |  | inconclusive: -31.7% [inhibitor]
60 | Cc1ccc(/C=C2\SC(=O)N(CCC(=O)N3CCN(C)CC3)C2=O)cc1 | active: 18.4 µM | 
61 | CC(=O)Oc1ccc(Cl)cc1/C=C/c1ccc2ccccc2n1 | inconclusive [inhibitor, single point] | 
62 | CCOc1ccc2nc(NC(=O)NC3CCCCC3)sc2c1 | inconclusive [inhibitor, partial curve, poor fit] | 
63 | Nc1nc(SCc2ccc([N+](=O)[O-])cc2)c2ncn(C3OC(CO)C(O)C3O)c2n1 (stereo not drawn) | inactive | 
64 | Cc1noc(/C=C/c2cccnc2)c1[N+](=O)[O-] | active: 20.6 µM | 
65 | CCOc1cccc(N2CCN(CCNC(=O)Nc3ccc(C)cc3)CC2)c1C | inconclusive [inhibitor, single point] | 
66 | CC(=O)NCc1ccc(-c2csc(NC(=O)CCc3nc4ccccc4c(=O)[nH]3)n2)s1 | inconclusive [inhibitor, partial curve, poor fit] | 
67 | Cc1ccn2cc(CSc3ccccc3)nc2c1 | inconclusive [inhibitor, partial curve] | 
68 | CC1(C(=O)Nc2cccc3c2CCCC3)CCN1C(=O)Cc1ccccc1Cl (stereo not drawn) | inconclusive [inhibitor, single point] | 
